Source: PubChem BioAssay AID1030 (National Center for Advancing Translational Sciences (NCATS), 2008)
Hit rate of the full screen: of about 220,000 compounds, about 16,000 (7.3%) were called active. The inconclusive results got no clear call from the source; some entries with a clear call stand among them for comparison. The call rests on the fitted dose curve; in most records, active means well fitted inhibition curve with a large enough effect (not every such curve was filed as active); inconclusive means small, poorly fitted or top-dose-only effect, or another doubt; inactive means no such curve, though single readings can be large or run the other way. Potencies of inconclusive entries are left out as doubtful fits.

Target: Aldehyde dehydrogenase 1A1 (Homo sapiens) (UniProt P00352)
Test: qHTS Assay for Inhibitors of Aldehyde Dehydrogenase 1 (ALDH1A1)
Conditions: Purified ALDH1A1, NADH fluorescence, propionaldehyde substrate; series mostly up to 75.3 µM
Potency means the concentration at half of the fitted maximal effect; tags describe the fitted curve by direction and shape.

UniProt P00352, sequence (P00352 whole entry, looked up): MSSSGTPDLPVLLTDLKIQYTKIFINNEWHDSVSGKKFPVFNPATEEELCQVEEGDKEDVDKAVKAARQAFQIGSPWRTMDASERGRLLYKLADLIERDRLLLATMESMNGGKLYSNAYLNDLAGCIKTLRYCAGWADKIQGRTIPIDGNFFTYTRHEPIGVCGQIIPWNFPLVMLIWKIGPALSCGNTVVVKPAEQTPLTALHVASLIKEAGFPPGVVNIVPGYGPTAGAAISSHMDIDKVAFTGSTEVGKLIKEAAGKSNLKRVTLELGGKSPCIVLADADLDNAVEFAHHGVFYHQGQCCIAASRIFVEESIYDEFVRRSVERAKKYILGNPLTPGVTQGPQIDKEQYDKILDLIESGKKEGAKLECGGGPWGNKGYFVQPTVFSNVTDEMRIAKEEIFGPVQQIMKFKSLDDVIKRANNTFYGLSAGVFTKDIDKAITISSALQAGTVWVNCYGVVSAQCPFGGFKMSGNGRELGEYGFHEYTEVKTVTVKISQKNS

Q: How did the Potency turn out when `CC1(C)Cc2ccccc2-c2nc(NCCCO)[nH]c(=O)c21` was run?
A: inconclusive [inhibitor, partial curve]

Q: Which Potency does the source give for `COC(=O)c1cc(-c2ccc(S(=O)(=O)N3CCCCC3)cc2)c(C(F)(F)F)s1` here?
A: inconclusive [inhibitor, full curve]

Q: For `CCOc1ccc(NC(=O)CN2CCN(CC(=O)c3ccc(OCC)cc3)CC2)cc1`, which Potency is on record?
A: active: 1.41 µM

Q: For `Cc1csc(NC(=O)CCc2c(C)nc3cc(-c4ccc(Cl)cc4)nn3c2C)n1`, which Potency is on record?
A: inconclusive [inhibitor, partial curve]

Q: `COc1ccc2c(CC(=O)OCC(=O)Nc3ccc4c(c3)OCO4)coc2c1` was tested. Which Potency did it give?
A: inconclusive [inhibitor, single point]

Q: How did the Potency turn out when `COc1ccc2c(c1)C(=O)[C@@H](OC(=O)NCCOc1ccccc1)[C@H](c1ccc(OC)c(Br)c1)O2` was run?
A: inactive

Q: How did the Potency turn out when `COC(=O)Oc1nsnc1N1CCOCC1` was run?
A: active: 3.98 µM

Q: For `COc1ccc(NC(=O)c2ccc3c(SCC(=O)O)c4c(nc3c2)CCCC4)c(OC)c1`, which Potency is on record?
A: active: 7.94 µM

Q: With `CCOc1ccccc1NC(=O)c1cc(C(=O)c2cc(Br)ccc2O)coc1=N` as the compound, how does the Potency read?
A: inconclusive [inhibitor, partial curve]

Q: For `O=C(NC(=S)NC1CCCc2ccccc21)c1ccco1` (stereo unspecified), which Potency is on record?
A: inconclusive [inhibitor, single point]

Q: How did the Potency turn out when `COc1ccc(CC(NC(C)=O)C(=O)NC2CCN(c3ncccc3[N+](=O)[O-])CC2)cc1` (stereo unspecified) was run?
A: active: 6.31 µM

Q: How did the Potency turn out when `CCOC(=O)c1ccccc1NC(=O)CSc1nc2ccccc2c(=O)[nH]1` was run?
A: inactive

Q: Which Potency does the source give for `Cc1ccc(C(=O)COC(=O)CNS(=O)(=O)c2ccccc2)cc1[N+](=O)[O-]` here?
A: inconclusive [inhibitor, partial curve]

Q: `CCC12CN3CC(CC)(CN(C1)C3c1ccc([N+](=O)[O-])o1)C2=O` (stereo unspecified) was tested. Which Potency did it give?
A: inconclusive [inhibitor, single point]

Q: For `CCCCn1cc(SCC(=O)O)c2ccccc21`, which Potency is on record?
A: inconclusive [inhibitor, partial curve]

Q: Which Potency does the source give for `CCOC(=O)C(CSCC(=O)c1ccc(Cl)cc1Cl)NC(=O)OC(C)(C)C` (stereo unspecified) here?
A: active: 7.94 µM

Q: With `COc1ccccc1OCC(=O)Nc1ccc(S(=O)(=O)Nc2cc(C)nc(C)n2)cc1` as the compound, how does the Potency read?
A: inactive

Q: `Cc1cc2cc(CNC(=O)c3ccc(S(=O)(=O)N4CCOCC4)cc3)ccc2n1C` was tested. Which Potency did it give?
A: active: 25.1 µM

Q: How did the Potency turn out when `O=c1cnn(-c2ccccc2)c(-c2ccccc2)c1` was run?
A: inconclusive [inhibitor, single point]

Q: For `Nc1c(C(=O)NCc2ccc(Cl)cc2)sc2nc3c(c(C(F)(F)F)c12)CCC3`, which Potency is on record?
A: inconclusive [inhibitor, single point]

Q: How did the Potency turn out when `COc1ccc(-c2nnc(SCC(=O)Nc3cc(C)on3)o2)cc1` was run?
A: inactive

Q: `Cc1cccc(NC(=O)c2cc(S(=O)(=O)NCc3ccco3)ccc2F)c1C` was tested. Which Potency did it give?
A: inconclusive [inhibitor, single point]

Q: How did the Potency turn out when `CC(=O)c1cc(C#N)c(SCCC(C)C)nc1C` was run?
A: inconclusive [inhibitor, partial curve]

Q: With `COC(=O)c1[nH]c2ccccc2c1NC(=O)CN1CCN(c2cccc(Cl)c2)CC1` as the compound, how does the Potency read?
A: inconclusive [inhibitor, partial curve]

Q: Which Potency does the source give for `COCCN(CCOC)S(=O)(=O)c1ccc(C(=O)Nc2ccc([N+](=O)[O-])cc2OC)cc1` here?
A: inconclusive [inhibitor, single point]

Q: With `C(=N\n1c2ccccc2c2ccccc21)/c1ccccc1` as the compound, how does the Potency read?
A: inactive

Q: `CCCN(CCC)c1nc2ccccc2nc1C(C#N)C(=O)OC(C)COC` (stereo unspecified) was tested. Which Potency did it give?
A: inconclusive [inhibitor, partial curve]

Q: `CN(C)c1ccc(NC(=O)Nc2cccc3ccccc23)cc1` was tested. Which Potency did it give?
A: inconclusive [inhibitor, single point]

Q: `O=C(CN1C(=O)C2C3C=CC(C3)C2C1=O)Nc1ccc(S(=O)(=O)N2CCCCC2)cc1` (stereo unspecified) was tested. Which Potency did it give?
A: inactive

Q: With `Cc1ccc(Nc2nc(N)nc(CN3CCN(Cc4ccc5c(c4)OCO5)CC3)n2)cc1` as the compound, how does the Potency read?
A: inconclusive [inhibitor, single point]

Q: With `O=C(NC1CC1)c1ccc(CS(=O)(=O)c2c(Cl)cccc2Cl)o1` as the compound, how does the Potency read?
A: inconclusive [inhibitor, single point]

Q: Which Potency does the source give for `CCOC(=O)CSc1cc(=O)n(C)c2cc(Cl)ccc12` here?
A: inconclusive [inhibitor, partial curve]

Q: For `COc1ccc(OC)c(Cc2nnc(CCC(=O)NCc3ccc(C)s3)o2)c1`, which Potency is on record?
A: inconclusive [inhibitor, single point]

Q: `O=c1[nH]c2cc3c(cc2cc1CN(Cc1ccccc1)Cc1nnnn1Cc1ccco1)OCCO3` was tested. Which Potency did it give?
A: inconclusive [inhibitor, partial curve]

Q: With `COCCN(CC(=O)Nc1ccccc1C)S(=O)(=O)c1ccc(S(=O)(=O)N2CCCC2)cc1` as the compound, how does the Potency read?
A: inconclusive [inhibitor, single point]

Q: With `Cc1cc(NCCCn2ccnc2)n2ncc(-c3ccc(Cl)cc3)c2n1` as the compound, how does the Potency read?
A: inconclusive [inhibitor, single point]

Q: With `CC(=O)Nc1cccc(NC(=O)Cc2nc(-c3ccccc3)sc2-c2ccc(C)cc2)c1` as the compound, how does the Potency read?
A: inactive

Q: With `COCCNC(=O)COC(=O)C1=Cc2ccccc2OC1` as the compound, how does the Potency read?
A: inconclusive [inhibitor, partial curve]

Q: With `O=C(N/N=C/c1ccc2c(c1)OCO2)C1COc2ccccc2O1` (stereo unspecified) as the compound, how does the Potency read?
A: inconclusive [inhibitor, single point]

Q: With `O=C(c1ccc(S(=O)(=O)Cc2ccccc2Cl)c([N+](=O)[O-])c1)N1CCN(c2ccccn2)CC1` as the compound, how does the Potency read?
A: active: 17.8 µM

Q: With `O=c1c(CCc2ccccc2)nc2cnc(N3CCOCC3)nc2n1-c1ccccc1` as the compound, how does the Potency read?
A: inconclusive [inhibitor, partial curve]

Q: With `O=C(Nc1ccccc1-c1nc2ccccc2s1)c1cccnc1Cl` as the compound, how does the Potency read?
A: inconclusive [inhibitor, single point]

Q: With `O=[N+]([O-])c1cc(Br)cc(C=Nc2ccc3c(c2)OCO3)c1O` as the compound, how does the Potency read?
A: active: 10 µM

Q: For `COc1ccccc1OCCCCOc1ccccc1F`, which Potency is on record?
A: inactive

Q: `CCOC(=O)N1CCC(N2Cc3cccc(C(=O)NCc4ccccc4OC)c3C2=O)CC1` was tested. Which Potency did it give?
A: inactive

Q: Which Potency does the source give for `O=S(=O)(NCCSCc1ccc(Cl)cc1Cl)c1ccc2c(c1)OCCO2` here?
A: inconclusive [inhibitor, partial curve]

Q: For `Cc1cccc(CN2CCCC(C(=O)c3ccc4c5c(cccc35)CC4)C2)n1` (stereo unspecified), which Potency is on record?
A: inconclusive [inhibitor, partial curve]

Q: Which Potency does the source give for `COc1ccccc1Nc1ncnc2ccc(C)cc12` here?
A: inactive

Q: Which Potency does the source give for `CCc1ccccc1NC(=O)CN(C)C(=O)CSc1nn(-c2ccccc2)c(=S)s1` here?
A: inconclusive [inhibitor, single point]

Q: `CCCn1c2ccccc2c2nnc(SCC(=O)Nc3cc(C)on3)nc21` was tested. Which Potency did it give?
A: inconclusive [inhibitor, single point]

Q: How did the Potency turn out when `CCOC(=O)N1CCN(C(=O)CSc2ccc3nnc(CCNC(=O)c4ccc(OC)cc4)n3n2)CC1` was run?
A: active: 7.94 µM

Q: For `Cc1cccc(C)c1N=C1NN=C(c2ccccc2F)CS1`, which Potency is on record?
A: inactive

Q: How did the Potency turn out when `O=C(O)CCC(=O)NCCc1cccc(Cl)c1` was run?
A: inconclusive [inhibitor, single point]

Q: `CCOC(=O)c1cc2c(=O)n3ccccc3nc2n(CCCOC)c1=NC(C)=O` was tested. Which Potency did it give?
A: inconclusive [inhibitor, full curve]

Q: Which Potency does the source give for `COc1cc(SC)ccc1C(=O)NCCOc1c(C)cc(C)cc1C` here?
A: inactive

Q: For `COC(=O)c1c(-c2ccccc2)csc1NC(=O)c1ccco1`, which Potency is on record?
A: inconclusive [inhibitor, single point]

Q: How did the Potency turn out when `COc1ccnc(CSC(N)=Nc2ccccc2C(F)(F)F)c1` was run?
A: inactive

Q: How did the Potency turn out when `CCN(CC)S(=O)(=O)c1ccc(N2CCOCC2)c(NC(=O)COc2ccccc2)c1` was run?
A: active: 0.224 µM

Q: How did the Potency turn out when `COc1cc(OC)c(C(=O)NC2CCCCCC2)cc1OC` was run?
A: inconclusive [inhibitor, single point]

Q: Which Potency does the source give for `Nc1nc(-c2ccc3c(c2)NC(=O)CO3)cs1` here?
A: active: 3.16 µM

Q: For `O=[N+]([O-])c1ccccc1/C=N/n1c(C2CCCCC2)n[nH]c1=S`, which Potency is on record?
A: active: 7.08 µM

Q: For `COCCCNC(=O)CNC(=S)N(Cc1ccc(F)cc1)C1CCCCC1`, which Potency is on record?
A: inconclusive [inhibitor, single point]

Q: How did the Potency turn out when `Cc1cc(=O)oc2n[nH]c(-c3ccccc3)c12` was run?
A: inconclusive [inhibitor, single point]

Q: Which Potency does the source give for `CC(C)(C)c1ccc(OCC(=O)N/N=C/C2CC=CCC2)cc1` (stereo unspecified) here?
A: active: 31.6 µM

Q: For `C[C@H](Cc1ccccc1)Nc1ncnc2c1ncn2[C@@H]1O[C@H](CO)[C@H](O)[C@H]1O`, which Potency is on record?
A: inactive

Q: For `COc1ccc(C(=O)NCc2oc(-c3ccccc3)cc2C(=O)O)cc1`, which Potency is on record?
A: inconclusive [inhibitor, single point]

Q: How did the Potency turn out when `CCn1c(SCC(=O)N/N=C/C(C)=C/c2ccco2)nnc1-c1ccccc1` was run?
A: active: 20 µM

Q: Which Potency does the source give for `COC(=O)[C@@]1(Cc2ccccc2)[C@H]2c3cc(C(=O)N4CCCC4)n(Cc4ccc(C(F)(F)F)nc4)c3C[C@H]2CN1C(=O)c1ccccc1` here?
A: inactive

Q: Which Potency does the source give for `Cc1cc(C(F)(F)F)nn1CC(=O)Nc1ccc(Br)c2cccnc12` here?
A: inactive

Q: How did the Potency turn out when `O=S(=O)(Nc1cc(Sc2cccc3cccnc23)c(O)c2ccccc12)c1ccccc1` was run?
A: inconclusive [inhibitor, single point]

Q: Which Potency does the source give for `CCCCCn1c(N2CCC(C(N)=O)CC2)nc2c1c(=O)[nH]c(=O)n2C` here?
A: inactive
